# Data as given in the supplement of paper PMC3334620.
# Whole data set: some 33,000 sequences, median “E-score (-0.5 to 0.5)” near -0.054, cut for the highest 2% near 0.35. Some of the results follow.
# Molecular target: T1, Stb5 (UniProt P38699)
# T1 sequence: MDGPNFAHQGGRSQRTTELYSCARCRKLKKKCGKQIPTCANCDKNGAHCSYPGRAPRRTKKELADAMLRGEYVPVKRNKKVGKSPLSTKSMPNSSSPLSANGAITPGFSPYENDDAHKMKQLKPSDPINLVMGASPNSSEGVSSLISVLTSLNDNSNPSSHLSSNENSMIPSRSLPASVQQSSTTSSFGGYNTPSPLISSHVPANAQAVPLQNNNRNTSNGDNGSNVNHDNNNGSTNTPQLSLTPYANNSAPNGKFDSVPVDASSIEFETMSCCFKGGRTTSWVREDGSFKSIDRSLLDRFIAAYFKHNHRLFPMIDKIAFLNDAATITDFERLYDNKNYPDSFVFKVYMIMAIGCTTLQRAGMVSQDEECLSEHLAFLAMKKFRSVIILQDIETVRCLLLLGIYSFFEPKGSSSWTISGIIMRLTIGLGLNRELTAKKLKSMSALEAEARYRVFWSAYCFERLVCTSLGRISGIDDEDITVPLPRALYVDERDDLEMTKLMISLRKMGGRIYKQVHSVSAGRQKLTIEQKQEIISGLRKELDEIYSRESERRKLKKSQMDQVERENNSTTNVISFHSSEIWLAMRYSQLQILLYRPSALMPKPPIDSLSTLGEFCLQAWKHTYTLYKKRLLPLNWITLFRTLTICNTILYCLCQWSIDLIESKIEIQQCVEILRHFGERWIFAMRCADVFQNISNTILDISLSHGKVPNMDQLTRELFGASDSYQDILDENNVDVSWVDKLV
# Assay: PBM E-score (8-mer binding enrichment) (E-score (-0.5 to 0.5)); higher = stronger / more preferred TF binding; most listed sequences are background and not binding sites
# Details: protein concentration: 200 nM; construct: GST-full length
# How it was run: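 Yeast transcription factors, full-length or as DNA-binding domains, were expressed with a GST tag using PURExpress in vitro transcription/translation. At about 100-200 nM they were applied to universal all-10-mer Agilent arrays, double-stranded by primer extension on fresh or once-stripped slides. Fluorescent anti-GST detected bound protein, and masliner normalised the scans. E-scores for ungapped eight-base words, pooled with reverse complements, came from the Universal PBM Analysis Suite.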
row,Sequence,PBM E-score
1,CCATGCTA,-0.28
2,TCTTCAAA,-0.239
3,ATCCCTTA,-0.132
4,GCCTACCA,-0.0157
5,ATAATGAG,-0.113
6,CACACCTG,-0.19
7,AGGCACGG,0.138
8,CTCAGTTC,-0.39
9,GACAGGAC,0.018
10,ACTCATCG,0.115
11,GGCCAGGA,-0.264
12,CGTGTCCC,-0.0774
13,GCTAACGA,0.00948
14,CATAAATG,-0.202
15,AACTTACA,-0.111
16,CATCTTTC,-0.238
17,ACACCCAT,-0.0903
18,GCGCTACA,0.0449
19,AATGGCGT,-0.0532
20,AAATTCCC,0.245
21,AAATGTCC,0.343
22,GGGGGATA,0.13

row,Sequence,PBM E-score
1,AAGGCACG,-0.0337
2,AAGTAAGA,-0.141
3,GGTCCATA,0.0543
4,ATCCTGGA,-0.135
5,ATGATTTC,-0.137
6,GTGAAACA,-0.033
7,CCCCCAGG,-0.281
8,CGTAAAAC,0.157
9,GTAGCCTA,-0.3
10,CGACATTA,0.237
11,GCATTGAA,-0.0445
12,GTAGCGAC,0.108
13,GGCCTAGA,-0.147
14,AGGTAGTC,-0.2
15,AGCCAGAC,-0.197
16,ACTCTGAC,0.0403
17,ACCCTCAC,-0.325
18,AAACCAGG,-0.00613
19,GATTTCCA,-0.122
20,ATAGCTGA,-0.075
21,AAGCTAGA,-0.389
22,CGCACCTC,-0.0539

row,Sequence,PBM E-score
1,GGAAGATA,0.0506
2,CAGTTGCA,-0.245
3,CATGTTAC,-0.0955
4,GTAGCAAA,-0.0214
5,CAGCCCCG,0.267
6,CCATAGCC,-0.0152
7,CCGGCCGA,0.272
8,TAGCGTCA,0.0505
9,ATCGGCAT,0.363
10,CACTCTTC,-0.1
11,GTTAATGA,-0.209
12,CACGCAGG,-0.132
13,AAGACATC,-0.0816
14,CGACAGCC,-0.0167
15,ATATAGAT,-0.122
16,GTCGTGTA,-0.0816
17,AACCCACG,-0.0903
18,CACCCCAG,-0.171
19,CCGTCAAC,0.144
20,AATCCACA,-0.0189
21,AGGTTGGG,-0.208
22,TCACCCCA,-0.0925

row,Sequence,PBM E-score
1,AGTATGAC,-0.0163
2,AATATCCA,-0.00669
3,GAGTGGAC,-0.0648
4,GCGATGAC,-0.0995
5,CCGTGATA,0.21
6,AAAATGTG,-0.067
7,AAGCTCGG,0.134
8,AGAGATTG,-0.0979
9,AGAGCTGA,-0.259
10,ATTGTTCC,0.146
11,AGGCGGAG,0.356
12,GCGCAGCC,-0.0753
13,AGTCGGCA,0.325
14,GACTTGAC,0.013
15,AATGAAGC,-0.0784
16,CCCTGTCC,-0.0839
17,CCGTCTTA,0.197
18,AATCGCTG,0.0298
19,CGAATGTA,0.0849
20,AATCCCCC,0.127
